According to PubChem BioAssay AID1346378 (National Center for Advancing Translational Sciences (NCATS), 2018):
Several values for one entry are separate records, joined by “and”; a condition that tells them apart may be missing. Equal entries are not always repeated. The whole screen tested about 420,000 compounds, of which about 540 (0.13%) were called active. This list was built around the results that the source calls inconclusive (neither active nor inactive); the mix of calls is not that of the screen. No stated cut-off is given here; in the data, active means activity change below about -50%; inconclusive means mostly about -30% to -49%; inactive means weaker than that. Some structures have more than one record in an assay (separate samples or runs), and their calls can disagree.

Target: Phosphatidylinositol 4-kinase type 2-alpha (Homo sapiens) (UniProt Q9BTU6)
Assay: qHTS for small molecular inhibitors of PI4K2A;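 further: -100% = wells without enzyme as full effect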
Details: purified PI4K2A, ADP-Glo luminescence, 1 h; at 76.9 µM, stronger effect = lower value
In short: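 In this quantitative HTS, ADP production by PI4K2A was quantified luminescently after 1 h at ambient temperature; 100 microM adenosine served as plate-quality control.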

Chain of UniProt Q9BTU6 (Q9BTU6 whole entry, looked up): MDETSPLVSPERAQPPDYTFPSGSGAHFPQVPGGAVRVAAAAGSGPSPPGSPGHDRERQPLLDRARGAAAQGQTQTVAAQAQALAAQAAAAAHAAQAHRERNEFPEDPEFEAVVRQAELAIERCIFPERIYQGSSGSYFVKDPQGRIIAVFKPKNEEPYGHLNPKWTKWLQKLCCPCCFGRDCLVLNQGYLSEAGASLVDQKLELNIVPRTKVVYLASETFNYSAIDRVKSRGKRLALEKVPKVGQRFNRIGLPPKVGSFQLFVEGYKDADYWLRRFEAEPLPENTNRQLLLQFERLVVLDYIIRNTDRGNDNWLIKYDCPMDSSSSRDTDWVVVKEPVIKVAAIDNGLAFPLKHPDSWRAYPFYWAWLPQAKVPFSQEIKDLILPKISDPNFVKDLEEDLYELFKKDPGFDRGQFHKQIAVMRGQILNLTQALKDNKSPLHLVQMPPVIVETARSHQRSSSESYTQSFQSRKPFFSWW

Activity change, negative = inhibition, inconclusive:
O=C(NCc1cccc(CNC(=O)C(=O)NCc2ccco2)c1)C(=O)NCc1ccco1 -36.3%
COc1ccc(C(=O)O/N=C(\N)c2ccccn2)c(OC)c1 -32%
Nc1ccc2nc(CCCO)[nH]c2c1 -35%
Cc1cc(NS(=O)(=O)c2ccc(Nc3nc(-c4sc(N)nc4C)cs3)cc2)no1 -33.5%
O=C1/C(=C\c2cccnc2)CCc2ccccc21 -30.6%
CCOc1cc2c(C#N)c(N(CC)CC)nc(N)c2c(N)n1 -41.1%
Cc1ccccc1Nc1nnc(SCC(=O)NC(=O)NCc2ccco2)s1 -30.3%
Cc1csc(NC(=O)c2ccc(N3CCCC3=O)cc2)n1 -30.2%
Cc1ccc(S(=O)(=O)Nc2ccc(O)c3ccccc23)c(C)c1 -30.6%
CN(C)c1ccc(N/C=C/C(=O)c2ccco2)cc1 -38.7%
O=C(NC1(O)C(=O)c2ccccc2C1=O)c1ccc(C(F)(F)F)cc1 -41.8%
O=C(COc1ccc2c(-c3ccccc3)cc(=O)oc2c1)NC(Cc1c[nH]c2ccccc12)C(=O)O (stereo unspecified) -40%
CCCC(C)NC(=O)c1c2c(nc3ccccc13)CCC2 (stereo unspecified) -32.6%
CC1Cc2[nH][nH]c(=O)c2C(C2CC2)O1 (stereo unspecified) -32.2%
COc1ccc(OC)c(C2C3=C(N=C4SCC(=O)N42)c2ccccc2CC3)c1 (stereo unspecified) -33.1%
C/C(=N\NC(=O)c1ccc2c(c1)OCO2)c1ccco1 -36.2%
Cc1cc(-c2csc(NC(=O)C3=COCCO3)n2)c(C)n1C -49.2%
O=C(Nc1ccc2c(c1)OCO2)c1cc2ncc(Br)cn2n1 -41.1%
Oc1c(N=Nc2nn[nH]n2)ccc2ccccc12 -38.9%
CCOC(=O)C1CCN(C(=O)CCc2nnc3ccc(NCc4ccco4)nn23)CC1 -33%
Cc1ccccc1-c1cc2c(nn1)-c1ccccc1C2=O -45.6%
COc1ccc(C2=CC3=C(Br)C(=O)C(C)(O)C(=O)C3=CO2)cc1 (stereo unspecified) -33.5%
Cc1nnc(NS(=O)(=O)c2ccc(N=Nc3ccc(N)nc3N)cc2)s1 -39.5%
CN(C)c1ccc2nc3ccc(=[N+](C)C)cc-3sc2c1 -47.7% and -43.4%
Cc1nnc(N/N=C\c2ccc(-c3ccccc3[N+](=O)[O-])o2)n1N -40%
COc1ccc(-c2cc(=O)oc3cc(OC(C)C(=O)NC(Cc4c[nH]c5ccc(O)cc45)C(=O)O)ccc23)cc1 (stereo unspecified) -45%
Nc1c(Cl)ncnc1N/N=C/c1ccc(O)cc1 -42%
CCOc1cc(/C=C2/NC(=O)NC2=O)cc(Br)c1OCc1ccc(C(=O)O)cc1 -38.5%
Cc1cccc(NC(=O)c2cc(-c3ccc4c(c3)OCCO4)on2)c1 -30.6%
Cn1nccc1C(=O)Nc1ccc2c(c1)OCCO2 -31.1%
CCc1noc(C)c1C(=O)N1CCOCC1 -31.3%
CC1=NN(c2nc3ccccc3[nH]2)C(=O)/C1=C/N(C)C -46.5%
CCCOc1ccc(Cn2c(O)cc(=O)[nH]c2=O)cc1 -49.5%
Clc1ccccc1N/N=C/c1ccc2c(c1)OCO2 -43.3%
O=C1C=C(Nc2cccnc2)c2ccccc2C1=O -40.2%
O=C(Nc1ccccc1)c1ccc2c(c1)OCCO2 -33%
Cc1ccc(N=Cc2cc(Cc3ccccc3Cl)cc([N+](=O)[O-])c2O)c(O)c1 -36.4%
Cc1cccc(/C(N)=N/OC(=O)c2ccc3c(c2)OCO3)c1 -44.9%
CCOc1ccc(Cn2c(O)cc(=O)[nH]c2=O)cc1 -35.2%
COc1ccc2cc(CN(CC3CCCO3)C(=S)NCc3ccco3)c(=O)[nH]c2c1 (stereo unspecified) -31.2%
CCc1cc(=O)oc2cc(C)c(CN3CCCCC3)c(O)c12 -41%
O=C1C(Cl)=C(N2CCN(c3ccccc3[N+](=O)[O-])CC2)C(=O)c2ccccc21 -38.6%
CCCOC(=O)c1ccc(NC(=O)c2ccoc2C)cc1 -30.1%
O=C(CSc1ccc(-c2ccccc2)nn1)N1CCCCC1 -38.3%
CCOc1cc(C2NN=C(c3ccccc3)S2)ccc1OCc1ccc(F)cc1 (stereo unspecified) -30.7%
O=C(COc1ccc2c(-c3ccccc3)cc(=O)oc2c1)N[C@H](Cc1c[nH]c2ccccc12)C(=O)O -37.4%
CC[n+]1ccc(/C=C/c2ccc(N(C)C)cc2)c2ccccc21 -40%
Cc1ccc(C2C(C#N)=C(N)Oc3n[nH]c(-c4cccnc4)c32)o1 (stereo unspecified) -34.4%
CCSc1nnc(NC(=O)c2ccccn2)s1 -48.3%
C=CCn1c(CNc2ccccc2)nnc1SCC(=O)N/N=C/c1ccc(O)cc1O -44%
CNc1cccccc1=S -36.8%
COc1ccc2c(c1)C(C)=CC(C)(C)N2C(=O)Nc1ccccc1 -31.3%

Activity change, negative = inhibition, -53% (active) and -41.3% (inconclusive):
CCOc1cccc(CNc2ccc(O)cc2)c1OCc1ccccc1Cl

Activity change, negative = inhibition, active:
Cc1ccsc1C=Nc1ccc(O)cc1 -59.3%
O=C(Nc1ccc(C(=O)O)c(O)c1)c1ccccc1 -50.4%
Cc1ccc(Cl)cc1N1CCN(C(=O)c2cc3ccc4cccnc4c3[nH]2)CC1 -75.6%
Cc1cnc(CNC(=O)CC2C(=O)NCCN2Cc2ccccc2C(F)(F)F)cn1 (stereo unspecified) -60.5%
COc1ccc(C(=O)ON=C(C)c2nccs2)cc1 -66.2%
CC(CCC(C)C(C)(C)C)[C@@H]1CC[C@H]2C3C[C@H](OS(O)(=S)=S)[C@H]4C[C@H](OS(O)(=S)=S)[C@@H](OS(O)(=S)=S)C[C@]4(C)[C@H]3CC[C@]12C (stereo partly specified) (tested in a mixture with another compound) -58.6%
CCN(CC)CCCNc1ccc2ncn3c4ccc(O)cc4c(=O)c1c23 -50.4%
O=C1N=c2ccccc2=C1c1sc(Nc2ccc(O)cc2)nc1O -64.7%
Cc1nonc1C(=O)N/N=C/c1ccc(O)cc1 -107%
COc1ccc(-c2nc(-c3ccccn3)no2)cc1 -73.8%
N/C(=N\OC(=O)c1ccccc1Cl)c1ccccn1 -51.1%
O=C1C(=O)c2cccnc2-c2ncccc21 -73.8%
COc1ccccc1C(=O)Nc1nc2ccccc2[nH]1 -90.8%
O=C1C(O)=C(O)C(=O)c2ccccc21 -50.5%
O=C(c1ccc(F)cc1)c1cc2ccc(O)cc2oc1=O -87.5%
O=C(COc1ccc(Cl)cc1Cl)Nc1ccccn1 -74.8%

Activity change, negative = inhibition, inactive:
COc1cccc(/C=N/NC(=O)CNC(=O)C2COc3ccccc3O2)c1O (stereo unspecified) 3.52%
Cc1ccc(NC(=O)CCc2nnc3ccc(NCc4ccco4)nn23)nc1 3.9%
Cc1cc(Cl)ccc1OCCCC(N)=O 1.83%
COC(=O)c1ccc(CNC(=O)c2ccc(S(=O)(=O)N3CCCC(C)C3)cc2)cc1 (stereo unspecified) 3.44%
COc1ccccc1NC(=O)/C(C#N)=C/c1ccncc1 0.28%
CCN=c1scc(C)n1/N=C/c1ccc(O)c(O)c1O -12%
COc1cccc(CN=c2c([N+](=O)[O-])nn(-c3ccccc3C)n2O)c1 -0.51%
COc1cc(CCc2ccccc2)c(C(=O)O)c(O)c1C/C=C(/C)CCC=C(C)C 3.27%
CCCOCCOC(=O)c1[nH]c2c(c1C)C(=O)CC(c1cc(OC)ccc1OC)C2 (stereo unspecified) -4.9%
O=[N+]([O-])c1cc2c(cc1Br)CCN2 0.686%
COc1ccc(N2CCN(Cc3nc(N)nc(Nc4ccc(C)c(Cl)c4)n3)CC2)cc1 2.74%
CN(Cc1cccs1)C(=O)c1ccc(S(=O)(=O)N2CCCCC2)cc1 2.1%
CC1=NN(c2ccccc2)C(=O)C1C(=S)SC1CC(=O)NC1=O (stereo unspecified) -15.3%
CN1C(=O)/C(=C/c2cc(C(C)(C)C)c(O)c(C(C)(C)C)c2)NC1=S 4.73%
O=C(NC(=S)Nc1ccc(N2CCOCC2)cc1)c1cccc(Cl)c1 3.39%
CC1CCN(CCOc2ccc(OCc3ccccc3)cc2)CC1 -3.57%
COc1ccc(NC(=O)C(=O)NNC(=O)c2cccs2)cc1 -0.905%
CC1CCN(C(=O)c2[nH]cnc2C(=O)N(C)Cc2ccccc2)CC1 -2.81%
CC(CCC(=O)NN)C1CCC2C3CCC4CC(O)CCC4(C)C3CCC12C (stereo unspecified) -1.62%
Cc1ccc(S(=O)(=O)NC(C(=O)Oc2ccc3ccc(=O)oc3c2)c2ccccc2)cc1 (stereo unspecified) -2.15%
O=C(Nc1ccc(Cl)cc1)OC1CCC12CCC(c1ccccc1)CC2 (stereo unspecified) -3.56%
O=C(NCCn1cc(SCc2ccc(F)cc2)c2ccccc21)c1c(F)cccc1F -1.51% and -1.73%
